The list shows a part of the results. Each Rep nickase domain was tested in vitro on the same pool of single strands for 1 h at 37 °C with 3 µM enzyme; only the middle of the 90-letter strands is printed. Values are log2 of uncut reads against the no-enzyme pool; the lower, the more was cut; hits are not called. Counts are relative to all reads, so uncut sequences can rise above 0 when many others are cut.
Key:
Assay in all cases: uncleaved DNA left, log2 of reads against the no-enzyme library (log2 ratio); higher = less cleavage (more negative = more Rep cleavage of the k-mer); sequences stand for … in CTCGTCCG…ACCGGAGA
[1] = system: T1, Rep nickase domain of Muscovy duck circovirus
T1 sequence (Rep 1-111, printed without the tag): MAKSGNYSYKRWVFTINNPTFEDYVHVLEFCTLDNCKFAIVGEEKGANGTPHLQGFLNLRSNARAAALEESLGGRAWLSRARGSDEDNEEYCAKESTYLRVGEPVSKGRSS
Description: (§1)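 A pool of 90-nt single-stranded DNAs with seven random bases just before the constant AC of the nick site (name = the seven bases) was cut by 3 µM recombinant His6-SUMO-tagged Rep nickase domain (300 nM DNA, 50 mM HEPES pH 8.0, 50 mM NaCl, 1 mM MnCl2, 1 h, 37 °C, three replicates). Uncut DNA was amplified and sequenced.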

[2] = system: T2, Rep nickase domain of banana bunchy top virus
T2 sequence (Rep 1-94, printed without the tag): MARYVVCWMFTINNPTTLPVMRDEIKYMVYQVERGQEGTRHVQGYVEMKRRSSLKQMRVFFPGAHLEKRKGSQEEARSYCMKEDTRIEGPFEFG
Description: as §1

[3] = system: T3, Rep nickase domain of cabbage leaf curl virus
T3 sequence (Rep 1-116, printed without the tag): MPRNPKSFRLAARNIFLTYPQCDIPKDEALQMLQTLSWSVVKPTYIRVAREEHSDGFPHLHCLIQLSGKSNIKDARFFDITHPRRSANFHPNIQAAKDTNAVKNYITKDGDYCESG
Description: as §1

[4] = system: T4, Rep nickase domain of chickpea chlorotic dwarf virus
T4 sequence (Rep 1-124, printed without the tag): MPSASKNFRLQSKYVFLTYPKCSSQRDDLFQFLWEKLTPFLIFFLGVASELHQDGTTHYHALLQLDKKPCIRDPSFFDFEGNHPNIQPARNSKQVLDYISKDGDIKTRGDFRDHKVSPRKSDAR
Description: as §1

[5] = system: T5, Rep nickase domain of faba bean necrotic yellows virus
T5 sequence (Rep 1-98, printed without the tag): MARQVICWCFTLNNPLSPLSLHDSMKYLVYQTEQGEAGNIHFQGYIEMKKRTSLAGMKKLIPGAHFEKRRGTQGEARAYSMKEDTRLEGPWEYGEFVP
Description: as §1

[6] = system: T6, Rep nickase domain of maize striate mosaic virus
T6 sequence (Rep 1-117, printed without the tag): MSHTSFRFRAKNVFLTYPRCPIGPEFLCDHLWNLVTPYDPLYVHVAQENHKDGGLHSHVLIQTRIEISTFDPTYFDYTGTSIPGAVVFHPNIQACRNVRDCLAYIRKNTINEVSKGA
Description: as §1

[7] = system: T7, Rep nickase domain of porcine circovirus 2
T7 sequence (Rep 2-116, printed without the tag): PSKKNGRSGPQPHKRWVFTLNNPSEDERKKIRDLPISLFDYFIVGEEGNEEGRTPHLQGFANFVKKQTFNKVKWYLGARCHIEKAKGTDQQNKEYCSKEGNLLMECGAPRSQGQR
Description: as §1

[8] = system: T8, Rep nickase domain of tomato golden mosaic virus
T8 sequence (Rep 1-124, printed without the tag): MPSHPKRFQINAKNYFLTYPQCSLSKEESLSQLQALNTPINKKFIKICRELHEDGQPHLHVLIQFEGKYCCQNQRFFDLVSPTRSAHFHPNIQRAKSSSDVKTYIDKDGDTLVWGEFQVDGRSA
Description: as §1

[9] = system: T9, Rep nickase domain of tomato yellow leaf curl virus
T9 sequence (Rep 1-136, printed without the tag): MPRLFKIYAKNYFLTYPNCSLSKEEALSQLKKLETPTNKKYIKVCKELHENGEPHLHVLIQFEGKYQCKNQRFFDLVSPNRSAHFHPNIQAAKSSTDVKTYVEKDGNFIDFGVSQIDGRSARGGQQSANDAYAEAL
Description: as §1

[10] = system: T10, Rep nickase domain of wheat dwarf virus
T10 sequence (Rep 1-137, printed without the tag): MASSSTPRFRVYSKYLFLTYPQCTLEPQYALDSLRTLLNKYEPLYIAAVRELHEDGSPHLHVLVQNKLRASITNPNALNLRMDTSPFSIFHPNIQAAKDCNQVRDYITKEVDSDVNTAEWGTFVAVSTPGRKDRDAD
Description: as §1

Row | Sequence | uncleaved DNA left (log2) [1] | uncleaved DNA left (log2) [2] | uncleaved DNA left (log2) [3] | uncleaved DNA left (log2) [4] | uncleaved DNA left (log2) [5] | uncleaved DNA left (log2) [6] | uncleaved DNA left (log2) [7] | uncleaved DNA left (log2) [8] | uncleaved DNA left (log2) [9] | uncleaved DNA left (log2) [10]
1 | GCGAAAA | 0.0143 | 0.0629 | 0.168 | 0.483 | 0.169 | 0.165 | 0.149 | -0.00242 | 0.132 | 0.149
2 | TCAAACG | -0.0174 | -0.00418 | -0.814 | -0.656 | -0.0203 | -1.27 | 0.18 | -0.0641 | -0.00558 | -0.0843
3 | GATCGGC | -0.0578 | -0.0666 | 0.0977 | 0.367 | -0.0296 | -0.0892 | 0.0081 | -0.11 | -0.113 | -0.0257
4 | GTCGTAC | -0.0786 | -0.0175 | 0.199 | 0.707 | -0.0115 | 1.58 | -0.0778 | -0.039 | -0.057 | 0.00875
5 | GAGATCG | -0.0133 | 0.105 | -0.567 | -0.285 | -0.068 | -0.701 | 0.196 | -0.0061 | -0.00941 | -0.0481
6 | GTTCCTA | -0.0588 | 0.113 | 0.354 | 0.855 | 0.102 | 1.81 | 0.0595 | 0.0995 | 0.0151 | 0.0603
7 | ACGTAGT | -0.463 | -0.0283 | -0.14 | -0.454 | -0.165 | -0.622 | -3.41 | 0.121 | -0.169 | -0.0889
8 | CCTTGAT | -0.234 | 0.0418 | -0.148 | -0.0906 | 0.036 | 0.0825 | -1.53 | -0.0417 | -0.0774 | -0.087
9 | AGCAGAA | 0.0534 | 0.0926 | 0.105 | 0.394 | 0.102 | 0.456 | -0.0283 | 0.117 | 0.017 | 0.0738
10 | GCTGACA | 0.0469 | 0.0543 | 0.052 | 0.511 | -0.0147 | 0.784 | 0.0685 | 0.00573 | 0.019 | 0.0538
11 | TGACTCG | 0.0554 | -0.0386 | -0.569 | -0.521 | 0.15 | -0.781 | 0.0647 | -0.102 | -0.019 | -0.0872
12 | TACGGCC | -0.0418 | -0.104 | -0.141 | -0.182 | -0.11 | -0.452 | -0.0298 | -0.0364 | -0.0887 | -0.0419
13 | GAAGCTT | -0.116 | -0.0493 | -0.315 | -1.43 | -0.133 | 1.09 | -0.474 | -0.0905 | -0.153 | -0.187
14 | ATATCTG | 0.0651 | 0.145 | -0.0279 | 0.407 | 0.00924 | 0.263 | 0.159 | 0.0463 | -0.0241 | 0.147
15 | AAAAGGG | 0.078 | 0.0356 | -0.253 | -0.341 | 0.143 | -0.741 | 0.203 | 0.11 | 0.0776 | 0.0135
16 | ATCTGCG | -0.0233 | -0.143 | 0.144 | 1.28 | -0.0416 | 1.36 | 0.0481 | -0.114 | -0.249 | -0.139
17 | AGACATG | -0.0641 | -0.0332 | 0.144 | 0.845 | -0.0755 | 0.875 | 0.0637 | -0.0299 | -0.145 | 0.0672
18 | TTGAACC | -0.0234 | 0.0896 | 0.18 | -0.426 | 0.128 | -0.328 | -0.358 | 0.0265 | 0.0576 | 0.0734
19 | CTTGCAC | 0.00948 | -0.0274 | -0.514 | -0.715 | 0.0911 | -1.01 | 0.0427 | -0.0777 | -0.0344 | -0.141
20 | GTACTTT | -0.0636 | 0.122 | 0.332 | 0.718 | 0.0267 | 1.84 | 0.0554 | 0.144 | 0.061 | 0.134
21 | TTCATGA | 0.131 | 0.173 | 0.284 | 0.433 | 0.117 | -0.0355 | 0.235 | 0.102 | 0.19 | 0.146
22 | CGATGTG | 0.0317 | 0.0155 | -0.324 | -0.18 | 0.0194 | -0.513 | 0.143 | 0.156 | 0.0528 | 0.114
23 | TATTAGA | -1.56 | -0.0802 | -0.0338 | -0.736 | -0.0272 | -1.06 | -0.309 | 0.11 | 0.00473 | -0.0871
24 | CACGCTG | -0.0816 | -0.175 | 0.236 | 1.32 | -0.127 | 1.5 | 0.0227 | -0.00212 | -0.317 | -0.0847
25 | TAATACT | -5.19 | -4.45 | -5.44 | -3.88 | -2.94 | -4.09 | -5.15 | -4.85 | -4.23 | -5.29
26 | TTTGAGA | 0.0345 | -0.000522 | -0.283 | -0.413 | 0.105 | -1.08 | 0.11 | 0.00483 | 0.0319 | -0.109
27 | TCGCTGT | 0.187 | 0.101 | 0.308 | 0.706 | 0.212 | 1.08 | 0.0814 | 0.181 | 0.0128 | 0.138
28 | TGGATAC | 0.0286 | 0.0965 | 0.0599 | 0.578 | -0.0815 | -0.166 | 0.237 | -0.0285 | -0.0649 | 0.00192
29 | TCCATAT | 0.159 | -0.0625 | 0.127 | -0.65 | 0.0818 | -0.543 | -0.00799 | 0.00751 | 0.00643 | -0.0138
30 | GTATCTG | 0.0631 | 0.0889 | 0.157 | 0.552 | 0.0116 | 1.04 | 0.111 | 0.165 | 0.0484 | 0.0369

— the supplement of paper PMC7826260
